According to paper PMC6919601, “Identification of Plasmodium dipeptidyl aminopeptidase allosteric inhibitors by high throughput screening” (PLoS ONE, 2019):
The whole screen tested about 110,000 compounds, of which about 230 (0.21%) showed an effect of 50% or more. Some of the results follow.

Target: DPAP1 (Plasmodium falciparum, UniProt Q8IIJ9)
Experiment: primary screen, percent inhibition; read by cleavage of a fluorogenic dipeptide substrate; higher = more effect of the substance
Design: species or system P. falciparum D10 trophozoite lysates; single well
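Further: 30 min substrate incubation versus DMSO and 10 µM JCP410 controls.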

Sequence of DPAP1 (Q8IIJ9 whole entry, looked up): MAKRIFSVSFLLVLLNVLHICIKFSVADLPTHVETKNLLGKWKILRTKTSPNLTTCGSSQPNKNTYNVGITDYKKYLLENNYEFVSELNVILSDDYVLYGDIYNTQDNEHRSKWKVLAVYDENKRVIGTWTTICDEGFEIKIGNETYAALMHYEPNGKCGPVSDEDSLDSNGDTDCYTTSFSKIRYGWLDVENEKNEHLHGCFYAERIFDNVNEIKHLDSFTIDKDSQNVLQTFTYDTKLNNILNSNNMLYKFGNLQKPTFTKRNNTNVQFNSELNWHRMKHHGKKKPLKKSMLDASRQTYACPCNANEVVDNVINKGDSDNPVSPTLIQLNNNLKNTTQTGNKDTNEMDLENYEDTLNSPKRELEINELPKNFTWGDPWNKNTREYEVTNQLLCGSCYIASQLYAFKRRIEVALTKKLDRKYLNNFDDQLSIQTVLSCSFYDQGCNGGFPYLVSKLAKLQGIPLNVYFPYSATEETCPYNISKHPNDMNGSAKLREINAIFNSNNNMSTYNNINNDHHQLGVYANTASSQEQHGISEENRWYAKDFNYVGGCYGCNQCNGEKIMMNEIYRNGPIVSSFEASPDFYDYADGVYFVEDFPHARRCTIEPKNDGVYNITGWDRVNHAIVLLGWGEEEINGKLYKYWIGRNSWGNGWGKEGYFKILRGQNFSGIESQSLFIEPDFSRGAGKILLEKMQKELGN

Compound	% Inhibition @ 10 uM [%]
CCOc1ccc(NC(=O)CNS(=O)(=O)c2ccc(Br)cc2)cc1	-5.7
Cc1ccc(-n2nc3c(N4CCC(C(=O)NCCCN5CCOCC5)CC4)nnc(C)c3c2C)cc1	5.36
Cc1cccc(C(=O)Nc2ccccc2C(=O)Nc2ccccc2)c1	7.09
O=C(NCCCCCCNC(=O)c1cc2ccccc2oc1=O)c1cc2ccccc2oc1=O	-3.48
O=C(COc1cccc2ccccc12)Nc1ccc(N2CCN(C(=O)c3ccccc3)CC2)cc1	5.66
CC(C)Cn1c(=N)n(CCCOc2ccccc2)c2ccccc21	-3.29
Cc1cc(C)c(Cn2c3ccccc3c3cnn(CC(=O)N4CCC(C(N)=O)CC4)c(=O)c32)c(C)c1	-5.19
Cc1nnc2c(NCc3ccco3)nc3ccccc3n12	-1.08
COc1ccc(-c2cc3ncnc(O)c3s2)cc1	2.6
CC1CC(=N)C(C(=O)CC2CC(=O)NC(=O)C2)=C(O)C1 (stereo not drawn)	6.39
CC(=O)OCC1OC(n2ccc(=O)[nH]c2=O)C(OC(C)=O)C1OC(C)=O (stereo not drawn)	0.00178
COc1ccc(-c2nc(CS(=O)(=O)CC(=O)NC3CCCC(C)C3C)c(C)o2)cc1 (stereo not drawn)	-9.55
CCOC(=O)c1c(C)[nH]c(C)c1S(=O)(=O)N1CCC(C(=O)N2CCCCCC2)CC1	-7.06
COc1ccc(-c2cc(C(=O)Nc3nncs3)c3ccccc3n2)c(OC)c1	-1.17
Cc1c(C(=O)N2CCOCC2)oc2c1-c1nn(CC(=O)NCC3CCCO3)cc1CC2 (stereo not drawn)	0.896
COc1ccccc1Cn1c(-c2ccccc2)cn2c3c(=O)n(C)c(=O)n(C)c3nc12	-6.2
CC1CCN(S(=O)(=O)c2ccc3c(ccn3CCC(=O)NCCc3cccs3)c2)CC1	6.41
COCCn1c(CCC(=O)O)ccc1-c1cccs1	-8.61
CCNc1nc(NCC)nc(Oc2ccc(OCC)nn2)n1	-8.96
Cc1cc(C)cc(OCC(=O)N(Cc2nc(-c3ccc(Cl)cc3)no2)C(C)C)c1	2.78
COc1ccc(S(=O)(=O)N2CCC(C(=O)N3CCOCC3)CC2)cc1OC	-3.74
O=c1c2c(nc3n1CCCCC3)sc1c(O)c(Br)ccc12	5.54
CCOc1ccc(/C=C(\C#N)C(=O)Nc2nc3ccc(S(C)(=O)=O)cc3s2)cc1OC	-3.28
Cc1ccc(NC2=NC(=O)C(CC(=O)Nc3ccc(F)cc3)S2)cc1Cl (stereo not drawn)	3.17
CCN(CC)C(=O)Cn1cc(SCC(=O)N2CC(C)OC(C)C2)c2ccccc21 (stereo not drawn)	-6.16

Compound	% Inhibition @ 10 uM [%]
CN(C(=O)Cn1c(=O)n(Cc2ccccc2)c(=O)c2c3c(sc21)CCC3)C1CCCCC1	-1.29
COc1ccc(Br)cc1CN1CCN(C(=O)c2ccc(OC)c(OC)c2)CC1	-0.48
COc1cc(C)c(CN2CCN(c3ccc(Cl)cc3)CC2)cc1C	-3.56
Cc1cc(NC(=O)CSc2nc3c(cc2C#N)CCCCC3)no1	1.31
CS/C(=N\Cc1ccccc1)Nc1[nH]nc(C)c1-c1ccccc1F	0.913
CC(C)(C)c1ccccc1OCC(=O)NCC1CCCO1 (stereo not drawn)	5.51
COc1cccc(NC(=O)C2CCCC2)c1	5.26
CCCCOc1ccc(C(=O)Nc2ccc(C(C)=O)cc2)cc1	-5.26
CN1CCC(N(C)Cc2cccc(Oc3ccc(Cl)cc3)c2)CC1	-4.94
CC(C)c1cc(C(C)C)c(S(=O)(=O)NCCCO)c(C(C)C)c1	-5.5
CCCCC1CC(C)(/C(C)=N/NC(N)=S)OC1=O (stereo not drawn)	-3.4
CCOc1cc(C(=O)NCc2nc(-c3ccccc3)no2)cc(OCC)c1OCC	2.14
CC(C)Cc1cc(-c2ccccc2)c(C#N)c(N)n1	-1.76
CCN1CCN(S(=O)(=O)c2cc(Br)cnc2N)CC1	5.48
CSc1nc(C)cc(-c2ccccc2)c1C#N	4.09
COc1cc(NC(=O)C(c2ccccc2)c2ccccc2)c(OC)cc1NC(=O)C(c1ccccc1)c1ccccc1	-2.22
CCOC(=O)c1c(C)c(C(=O)N(CC)C2CCCCC2)c(C)n1C	-5.27
Cc1cc2ncn(CC(O)COc3cccc(Cl)c3)c2cc1C (stereo not drawn)	-0.053
Cc1ccc(-n2ncc3c(NC(C)C)ncnc32)cc1	4.61
CCOC(=O)c1sc(NC(=O)/C=C/c2ccc(OCC)cc2)nc1C	-5.2
N#CCNC(=O)[C@H](CSCc1ccccc1)NC(=O)c1ccc2c(c1)OCO2	-3.49
Cc1ccc2cc(NC(=O)c3ccccc3)ccc2n1	0.823
CCc1ccc(S(=O)(=O)c2nnn(-c3ccc(C)cc3)c2N)cc1	0.351
CCOc1ccccc1NC(=O)CC(C)(C)C	3.81
Cc1ccc(C2CC(C(F)(F)F)n3nc(C(=O)N4CCC(C)CC4)cc3N2)cc1 (stereo not drawn)	4.86

Compound	% Inhibition @ 10 uM [%]
NS(=O)(=O)c1ccc(CCNC(=O)CCCNS(=O)(=O)c2cccs2)cc1	-0.503
Cc1cccc(CN2CCN(c3ccc(Cl)cc3)CC2)c1	-5.57
Clc1ccc(OCCCn2ccnc2)c2ccccc12	2.22
Cc1ccc(C)n1-c1cc(C(=O)O)ccc1Cl	-4.11
Cc1ccc(CS(=O)Cc2ccc(C(=O)O)o2)cc1 (stereo not drawn)	-3.78
CCCCCC(=O)CCn1c(=O)sc2ccccc21	-4.95
CC1CC(C)CN(C(=O)CCc2nnc3ccc(N4CCOCC4)nn23)C1 (stereo not drawn)	-6.16
CC(=O)c1ccc(N2CCN(Cc3ccc(C(F)(F)F)cc3)CC2)cc1	1.83
COc1ccccc1CNC(=O)c1nnn(Cc2ccc(SC)cc2)c1N	1.26
Cc1ccc(-c2cc(C(=O)NC3CC3)c3ccccc3n2)cc1C	1.16
C=CCn1c(SCc2ccc(C(=O)NCCO)cc2)nc2sc3c(c2c1=O)CCCC3	2.7
CCN(CC(O)c1cccc(O)c1)c1ncnc2c1cnn2C (stereo not drawn)	0.426
COCCCNC(=O)Cn1c(=O)n(Cc2ccccc2)c(=O)c2c3c(sc21)CCC3	-0.668
CC1CC(C)CN(C(=O)C2CCCN2c2nnc(N3CCCC3=O)s2)C1 (stereo not drawn)	0.623
O=C(CSc1nc(-c2cccc(Cl)c2)[nH]c1-c1ccccc1)NCC1CCCO1 (stereo not drawn)	-1.58
COc1ccc(S(=O)(=O)N(CC(=O)Nc2ccc3c(c2)OCO3)c2ccccc2)cc1	-0.641
CN(Cc1ccccc1)C(=O)c1cnc2ccc(S(=O)(=O)N3CCOCC3)cc2c1O	1.76
CCc1ccc(/C(O)=C/C=N/c2ccc(NC(C)=O)cc2)cc1	0.722
Cc1ccc(C(=O)NCC2CCCO2)cc1C (stereo not drawn)	-5.13
N#CC1=C(N)Oc2c(ccc3ccccc23)C1c1cccc(C(F)(F)F)c1 (stereo not drawn)	3.95
Cc1n[nH]c(C)c1CCc1nc2c3ccccc3nc(SCC(N)=O)n2n1	4.65
CC1N(O)C(C)(C)C(c2ccc(F)cc2)=[N+]1[O-] (stereo not drawn)	1.84
CN(C)CCN(Cc1ccccc1)c1nccc(N(C)C)c1C#N	-6.29
CCCC1CCc2c(sc(NC(=O)Cc3ccc(OC)c(OC)c3)c2C(N)=O)C1 (stereo not drawn)	-7.01
Cc1ccc(CCNC(=O)CNC(=S)N(Cc2ccccc2)Cc2cccnc2)cc1	-5.8

Compound	% Inhibition @ 10 uM [%]
c1ccc2sc(NC3=NCN(CCN4CCOCC4)CN3)nc2c1	-4.62
COc1cc2c(C(=O)NCc3ccc(F)cc3)cn(C)c(=O)c2cc1OC	-4.86
NS(=O)(=O)c1ccc(NC(=O)c2ccc(Cl)cc2Cl)cc1	0.847
Cc1ccc(S(=O)(=O)c2cc3c(=O)n4cccc(C)c4nc3n(CCOCCO)c2=N)cc1	5.12
O=[N+]([O-])c1ccc(CN2CCN(Cc3ccccc3)CC2)s1	4.67
Cc1nc2c(C(=O)NCCC(C)C)cnn2c(C)c1Cc1ccccc1Cl	-4.06
Cc1c(C)c2cc3c(c(C)c2oc1=O)OCN(Cc1ccco1)C3	4.13
Cc1[nH]c2ccc(F)cc2c1CCN(Cc1ccccn1)C(=S)NC(C)(C)C	1.23
Cc1ccc(C)c(S(=O)(=O)Nc2ccc(C(=O)N3CC(C)OC(C)C3)cc2)c1 (stereo not drawn)	-4.63
CCOc1cc(CN2CCC(Cc3ccccc3)CC2)ccc1O	-8.13
Cc1ccc(S(=O)(=O)N(CC(=O)N2CCC(C)CC2)c2ccc(Cl)cc2)cc1	-1.92
O=C(c1ccccc1)N1CCN(C(=O)c2ccc(Br)cc2)CC1	-0.48
CCN1CCCC1CNC(=O)CCc1nnc2n(Cc3ccc(F)cc3)c(=O)c3ccccc3n12 (stereo not drawn)	-0.692
CC1(N2CCOCC2)C(=O)c2ccccc2C1=O	-2.09
C=CCc1ccccc1OCCOc1ccc(/C=C2/C(=N)N3OC(C)=CC3=NC2=O)cc1OC	6.73
O=C1NC(=S)NC(=O)C1=Cc1ccc2c(c1)OCO2	-2.63
CC(C)CCNC(=O)c1cc(O)nc2ccc(Br)cc12	3.24
Cc1nn(-c2cccc(Cl)c2)c(O)c1/C=N/c1ccc(SC#N)cc1	-8.72
O=C(CCCCC(=O)Nc1ccc(F)cc1)Nc1ccc(F)cc1	-0.366
CCc1[nH]nc2c1C(c1ccc(OC)cc1OC)C(C#N)=C(N)O2 (stereo not drawn)	0.121
Cc1sc(NC(=O)CCC(=O)O)nc1-c1ccc(Cl)cc1	-1.55
COc1cccc(CNCc2cccc(F)c2)c1OC	4
COc1ccc(C(=N)NOC(=O)c2c(-c3ccccc3Cl)noc2C)cc1	18.5
COC(=O)c1noc(-c2ccc(Cl)cc2)n1	0.032
